The text below walks through data of ChEMBL document CHEMBL4888484, “Replenishing the malaria drug discovery pipeline: Screening and hit evaluation of the MMV Hit Generation Library 1 (HGL1) against asexual blood stage Plasmodium falciparum ,using a nano luciferase reporter read-out” (2022).

The term % Inhibition denotes the relative decrease from the control value, in per cent.

Hit rate of the full screen: of about 150,000 compounds, about 540 (0.36%) showed an effect of 50% or more. The list shows a part of the results.

The test system of the assay is Plasmodium falciparum. The experiment in a line: Primary screen in NF54 nanoGlo assay, in single point, at 2uM, 72h; a lower Z score goes with more inhibition. The class given is functional, Erythrocyte. The conditions noted are these: timepoint 72 hour.
As for `O=S(=O)(NCC1(O)CCC1)c1ccc(Oc2cccc3cccnc23)cc1`, the “% Inhibition” value is listed as 5% and the Z score is given as -0.69.

On to `O=C(NC[C@@H](c1ccc(F)cc1)N1CCCC1)c1cn(C2CCCCC2)nn1`, for which the “% Inhibition” value stood at 12% and the Z score is given as -1.55.

With `Cc1cccnc1CCNC(=O)N1CCCC[C@H]1c1cccc(F)c1`, the “% Inhibition” value is recorded as 2% and the Z score is listed as -0.37.

On to `Cc1cnccc1CN(C)c1nc(-c2ccncc2)nc2c1c(C)nn2C`, for which the “% Inhibition” value is -8% and the Z score is 1.51.

Turning to `CC[C@H](Oc1cccc(C)c1)C(=O)NCc1ccnc(C)n1`, the “% Inhibition” value is given as -9% and the Z score came to 1.27.

Regarding `CCc1cc(C(=O)N2CCC[C@@]3(CCC(=O)N(Cc4cnc(C)cn4)C3)C2)[nH]n1`, the “% Inhibition” value was -18% and the Z score came to 1.95.

Take `C/C=C(\C)CN1CC[C@H](CNC(=O)c2onc3ccccc23)C1`: the “% Inhibition” value is -5% and the Z score was determined as 0.63.

Take `COc1ccc(-c2cc(-c3ccc(C)cc3)nc(N3CCC(C)CC3)n2)cc1`: the “% Inhibition” value is listed as 22% and the Z score is listed as -2.85.

Turning to `Cn1c(=O)n(C)c2cc([C@@H](O)COc3ccc(CNCc4ccccc4)cc3)ccc21`, the “% Inhibition” value is -16% and the Z score is 1.45.

With `COc1ccc(N2C(=O)CN(Cc3ccc(OC)c(O)c3)CC23CCCC3)cc1`, the “% Inhibition” value was determined as 14% and the Z score is on record as -1.81.

With `CCC(CO)NC(=O)C(C)N1C(C)CCC1C` (configuration not stated), the “% Inhibition” value was -6% and the Z score came to 0.72.

For the compound `Cc1ccc([C@@H](NC(=O)CCc2cc(C(C)(C)C)c(O)c(C(C)(C)C)c2)C(=O)Nc2ccc(C(C)C)cc2)cc1`, the “% Inhibition” value was -17% and the Z score is 3.

For `O=c1nc(NCCc2c[nH]c3ccccc23)cn[nH]1`, the “% Inhibition” value was 1% and the Z score is -0.09.

Turning to `CN(Cc1ccc(CN)cc1)C(=O)OC(C)(C)C`, the “% Inhibition” value is -8% and the Z score came to 0.86.

Regarding `O=C(Cn1nc(N2CCOCC2)c2ccccc2c1=O)N1CCN(c2ccccc2)CC1`, the “% Inhibition” value is given as -7% and the Z score is 1.07.

`Cc1ccc(S(=O)(=O)N2CCN(c3cc(Oc4cccc(F)c4)ncn3)C[C@@H]2C)cc1`: the “% Inhibition” value is recorded as 3% and the Z score is given as -0.57.

Take `COCCNC(=O)COCC(=O)Nc1ccccc1`: the “% Inhibition” value is -3% and the Z score was determined as 0.51.

In the case of `COCCN1CCN(c2nccc(N3CCCC(C)(C)C3)n2)C[C@@H]1C`, the “% Inhibition” value is 3% and the Z score is on record as -0.54.

As for `CC1(C)[C@H](Cc2cc(-c3ccccc3)on2)C[C@@H]1NS(C)(=O)=O`, the “% Inhibition” value is given as -8% and the Z score is 1.25.

For `COc1ccc(N2CCN(C(=O)[C@H](C)NC(=O)c3cc4ccccc4[nH]3)CC2)cc1`, the “% Inhibition” value is recorded as -2% and the Z score is 0.3.

For `C[C@@H](CC(=O)NCCCN1CCOCC1)CC(=O)Nc1cccc(Cl)c1Cl`, the “% Inhibition” value is reported as -11% and the Z score was determined as 2.09.

For `Cc1cc(C)cc(OCC(=O)NCC(C)C)c1`, the “% Inhibition” value is recorded as -13% and the Z score is recorded as 1.68.

`Cc1nc(N)nc(N2CCC[C@H](N(C)C)C2)c1Cl`: the “% Inhibition” value is given as -8% and the Z score was found to be 0.87.

As to `CCC(NC(C)C1CCCC1)C(=O)N1CCOCC1` (configuration not stated), the “% Inhibition” value is recorded as -7% and the Z score was 1.04.

As to `COCCN1CCC(c2c(-c3ccccc3)ncn2C2CC=CC2)CC1`, the “% Inhibition” value is given as 15% and the Z score was -1.92.

For `O=C(O)[C@H](Cc1ccccc1)NC(=O)[C@@H]1CCCN1C(=O)[C@H](Cc1ccccc1)n1c(=O)[nH]c2ccccc2c1=O`, the “% Inhibition” value is -4% and the Z score was 0.58.

For `N#Cc1cccc(NC(=O)C2CCN(S(=O)(=O)c3ccc4c(c3)CCCN4C(=O)C3CCC3)CC2)c1`, the “% Inhibition” value is given as -18% and the Z score was 3.38.

As to `Cc1ccc(-n2cccn2)c(-c2nccn2CCc2c[nH]c(=O)[nH]c2=O)c1`, the “% Inhibition” value is recorded as -5% and the Z score amounted to 0.45.

For the compound `CCCCn1ccnc1-c1cccc(NC(=O)NC[C@H](O)c2ccc(F)cc2)c1`, the “% Inhibition” value came out at 2% and the Z score is -0.2.

In the case of `CCc1noc(C)c1C(=O)N[C@@H]1[C@H]2CCO[C@H]2[C@H]1Cc1ccccc1`, the “% Inhibition” value was -10% and the Z score is listed as 1.59.

Regarding `CCOc1cc(C2N[C@H](C(=O)O)Cc3c2[nH]c2ccccc32)ccc1O` (some centres not stated), the “% Inhibition” value is on record as -8% and the Z score was determined as 0.95.

With `CC(=O)Nc1cccc(NC(=O)c2cc(C)n(-c3ccc4c(c3)OCCO4)c2C)c1`, the “% Inhibition” value turned out to be 6% and the Z score is on record as -1.13.

Consider `C[C@@H](C(=O)NCc1ccnn1C)n1ccnc1-c1ccccc1`, for which the “% Inhibition” value is -2% and the Z score stood at 0.32.

On to `C[C@](O)(CCc1ccccc1)CNC(=O)C(=O)Nc1cccc(C(F)(F)F)c1`, for which the “% Inhibition” value is on record as -1% and the Z score is listed as 0.12.

Consider `CC1CCCCC1N(C)C(=O)Cn1cc(-c2ccccc2)ncc1=O` (configuration not stated), for which the “% Inhibition” value was -25% and the Z score is listed as 3.16.

As for `CN1CCC(OC2CCN(S(=O)(=O)c3cccc(Br)c3)CC2)CC1`, the “% Inhibition” value is listed as -10% and the Z score is 1.25.

`Cc1ccnc(NC(=O)c2ccc(-c3ccccc3)cc2)c1`: the “% Inhibition” value was -1% and the Z score stood at 0.21.

Regarding `CCNc1nc(NC(C)C)nc(Oc2ccc(OCCOc3ccccc3C)nn2)n1`, the “% Inhibition” value was found to be 3% and the Z score was -0.36.

For the compound `CC(C)[C@@H]1CN(c2nnc(CN(C)C)n2C)CCO1`, the “% Inhibition” value is -1% and the Z score amounted to 0.14.

`CCCc1ccc(S(=O)(=O)N2CCC3(CC2)NCCN=C3NCc2ccccc2)cc1`: the “% Inhibition” value is -3% and the Z score came to 0.39.

Turning to `CCCN(CCC)c1ccc(NS(=O)(=O)c2ccc3c(c2)CCCC3)cc1C(=O)O`, the “% Inhibition” value is reported as -18% and the Z score was found to be 1.72.
